The list shows a part of the results.

The first test has as its system HSkMC (human skeletal muscle cells). Nature of the test: cytotoxicity call (relative viability < 0.9). The settings on record: 10 µM.
As to `C[C@H](CO)N1C[C@H](C)[C@@H](CN(C)C(=O)CN2CCOCC2)Oc2ncc(C#CCN(C)C)cc2C1=O`, the cytotoxicity call was “inactive”.

In the case of `C[C@@H]1CN([C@H](C)CO)C(=O)c2cccc(NC(=O)Nc3cccc4ccccc34)c2O[C@@H]1CN(C)CC1CCCCC1`, the cytotoxicity call is “inactive”.

As to `Cc1ccc(S(=O)(=O)Nc2ccc3c(c2)C(=O)N([C@@H](C)CO)C[C@H](C)[C@@H](CN(C)C(=O)Nc2cccc4ccccc24)O3)cc1`, the cytotoxicity call was “inactive”.

Take `C[C@H](CO)N1C[C@H](C)[C@@H](CN(C)S(=O)(=O)c2ccccc2)Oc2ccc(NC(=O)CCC(F)(F)F)cc2CC1=O`: the cytotoxicity call was “inactive”.

For the compound `C[C@@H]1CN([C@@H](C)CO)C(=O)c2cc(NC(=O)Nc3cccc4ccccc34)ccc2O[C@@H]1CN(C)C(=O)Nc1ccccc1`, the cytotoxicity call is “inactive”.

Regarding `NC(=O)c1c(Cl)ncc2c1NCC2`, the cytotoxicity call was “inactive”.

As for `C[C@@H]1CCCCO[C@H](CN(C)C(=O)Nc2ccc(C(F)(F)F)cc2)[C@H](C)CN([C@H](C)CO)C(=O)c2cc(NS(=O)(=O)c3ccc(Cl)cc3)ccc2O1`, the cytotoxicity call is “inactive”.

Regarding `C[C@H](CO)N1C[C@H](C)[C@@H](CN(C)C(=O)Nc2cccc3ccccc23)Oc2c(NC(=O)Nc3ccc(F)cc3)cccc2C1=O`, the cytotoxicity call is “inactive”.

Turning to `COc1cccc(C#Cc2ccc3c(c2)O[C@H](CN(C)S(=O)(=O)c2ccccc2F)[C@H](C)CN([C@@H](C)CO)S3(=O)=O)c1`, the cytotoxicity call was “inactive”.

Regarding `C[C@@H]1CCCCO[C@@H](CN(C)C(=O)CCC(F)(F)F)[C@H](C)CN([C@H](C)CO)C(=O)c2cc(NS(=O)(=O)c3ccc(Cl)cc3)ccc2O1`, the cytotoxicity call was “inactive”.

For the compound `CS(=O)(=O)CCOC(=O)C1=CC(c2ccc(CO)cc2)=C[C@@H](C2CC2)N(Cc2cc3c(cc2Br)OCO3)C=C1C(=O)OCCS(C)(=O)=O`, the cytotoxicity call was “inactive”.

`C[C@@H]1CN([C@@H](C)CO)C(=O)c2cccc(NC(=O)C3CCCCC3)c2O[C@H]1CN(C)C(=O)Nc1cccc2ccccc12`: the cytotoxicity call is “inactive”.

Another test deals with HepG2. Nature of the test: cytotoxicity call (relative viability < 0.9). Conditions: 10 µM.
As to `C[C@@H]1CN([C@@H](C)CO)C(=O)c2cc(NC(=O)c3ccccc3)ccc2O[C@@H](C)CCCCO[C@@H]1CN(C)Cc1ccc2c(c1)OCO2`, the cytotoxicity call is “inactive”.

Take `Cc1ccc(S(=O)(=O)N(C)C[C@H]2OCCCC[C@@H](C)Oc3ccc(NC(=O)C4CCCCC4)cc3C(=O)N([C@H](C)CO)C[C@@H]2C)cc1`: the cytotoxicity call was “active”.

Turning to `C[C@@H]1CCCCO[C@@H](CN(C)C(=O)Nc2cccc3ccccc23)[C@H](C)CN([C@@H](C)CO)C(=O)c2cc(NC(=O)Nc3ccccc3)ccc2O1`, the cytotoxicity call was “inactive”.

`CC(=O)OCC[C@H](C)CCC=C(C)C`: the cytotoxicity call was “inactive”.

Take `C[C@H]1CCCCO[C@@H](CN(C)Cc2ccc(C(F)(F)F)cc2)[C@@H](C)CN([C@@H](C)CO)C(=O)c2cc(NC(=O)CCC(F)(F)F)ccc2O1`: the cytotoxicity call was “active”.

On to `CCOC(=O)C1=C(CN2CCOCC2)NC(c2nccs2)=N[C@@H]1c1ccc(F)cc1Br`, for which the cytotoxicity call was “inactive”.

For `Cc1ccc(S(=O)(=O)N(C)C[C@@H]2OCCCC[C@H](C)Oc3ccc(NC(=O)Nc4c(C)noc4C)cc3C(=O)N([C@H](C)CO)C[C@@H]2C)cc1`, the cytotoxicity call was “inactive”.

As for `Cc1noc(C)c1NC(=O)N(C)C[C@H]1Oc2ccc(NS(=O)(=O)c3ccccc3)cc2C(=O)N([C@H](C)CO)C[C@H]1C`, the cytotoxicity call was “inactive”.

With `CN1C(=O)OC(C)(C)C1=O`, the cytotoxicity call is “inactive”.

For `C[C@H]1CCCCO[C@@H](CN(C)CC2CCCCC2)[C@@H](C)CN([C@@H](C)CO)C(=O)c2cc(NC(=O)Nc3ccc(F)cc3)ccc2O1`, the cytotoxicity call was “active”.

On to `O=C(C[C@@H]1C[C@@H]2c3cc(NS(=O)(=O)c4ccc(F)cc4)ccc3O[C@@H]2[C@@H](CO)O1)NCc1cccnc1`, for which the cytotoxicity call was “inactive”.

As to `CC(=O)c1ccc(S(=O)(=O)N2[C@@H]3CC[C@@H](C3)[C@H]2c2nc3cccc(OCc4ccccc4)c3[nH]2)cc1`, the cytotoxicity call is “inactive”.

Regarding `C[C@H]1CN([C@@H](C)CO)C(=O)c2cc(NS(=O)(=O)c3ccccc3)ccc2O[C@@H]1CN(C)S(=O)(=O)c1ccc(F)cc1`, the cytotoxicity call was “inactive”.

As to `Nc1ccc(O)c(C(=O)O)c1`, the cytotoxicity call is “inactive”.

As for `C[C@@H]1CCCCO[C@@H](CN(C)Cc2ccc(C(=O)O)cc2)[C@H](C)CN([C@@H](C)CO)C(=O)c2cc(NC(=O)Cc3ccccc3)ccc2O1`, the cytotoxicity call is “inactive”.

For the compound `C[C@H](O)C#Cc1ccc2c(c1)O[C@@H](CN(C)C(=O)Cc1ccccn1)[C@H](C)CN([C@H](C)CO)S2(=O)=O`, the cytotoxicity call is “inactive”.

On to `O=C(NCC(F)(F)F)C1CCNCC1`, for which the cytotoxicity call is “inactive”.

For the compound `CNC(=O)C[C@@H]1CC[C@H]2[C@@H](COC[C@@H](O)CN2C(=O)Nc2cccc(OC)c2)O1`, the cytotoxicity call is “inactive”.

Values taken from the antibiotic and cytotoxicity screens of Wong et al. (2023).
